{"source": "PubChem BioAssay AID485341", "about": "(National Center for Advancing Translational Sciences (NCATS), 2010)", "note": "Among all 330,000 compounds or so, about 1,700 (0.52%) were called active. This list was built around the results that the source calls inconclusive (neither active nor inactive); the mix of calls is not that of the screen. Calls come from the whole dose curve; as a rule, active = well fitted inhibition curve with a large enough effect; inconclusive = small, poorly fitted or top-dose-only effect; inactive = no such curve, though single readings can be large or run the other way. Potencies of inconclusive entries are doubtful fits and often do not repeat. Potency is the fitted concentration of half-maximal effect; tags give direction and shape of the fitted curve."}
{"biological_target": "Beta-lactamase (Escherichia coli (strain K12)) (UniProt P00811)", "sequence (P00811 whole entry, looked up)": "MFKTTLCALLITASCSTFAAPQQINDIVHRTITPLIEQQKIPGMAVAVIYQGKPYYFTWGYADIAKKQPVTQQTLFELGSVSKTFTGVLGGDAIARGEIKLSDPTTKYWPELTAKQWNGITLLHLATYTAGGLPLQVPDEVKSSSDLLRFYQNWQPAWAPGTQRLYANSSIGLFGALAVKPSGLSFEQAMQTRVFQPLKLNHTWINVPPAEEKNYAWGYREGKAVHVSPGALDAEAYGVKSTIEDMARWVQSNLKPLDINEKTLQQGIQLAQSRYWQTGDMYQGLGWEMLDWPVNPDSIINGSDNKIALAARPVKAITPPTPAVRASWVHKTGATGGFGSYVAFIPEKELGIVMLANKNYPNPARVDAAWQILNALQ", "assay": "qHTS Inhibitors of AmpC Beta-Lactamase (assay without detergent); note: nearly all actives have a fitted effect of over 20% in size", "conditions": "AmpC nitrocefin hydrolysis, absorbance 480 nm, 0.0001% Triton; activity change, negative = inhibition: at 57.1 µM (top of the series) unless noted", "method": "NIH Molecular Libraries Probe Production Network [MLPCN] NIH Chemical Genomics Center [NCGC] Assay Provider: Professor Brian Shoichet, UCSF Assay Overview: This aggregation profiling approach exploits the sensitivity of aggregate formation to detergent. Inhibition of b-lactamase is measured in the presence and absence of 0.01% Triton X-100. This particular assay had the prescence of 0.01% Triton X-100. See Pubchem assay \"Promiscuous and Specific Inhibitors of AmpC Beta-Lactamase (assay without detergent)\" for related screen. Compounds that inhibit only in the absence of detergent are considered likely promiscuous aggregators. A screen of 1,030 compounds was performed in Brian Shoichet's lab in 96-well format. AmpC activity was measured by following the absorbance at 480 nm. Nitrocefin is a chromogenic substrate: while nitrocefin is yellow (lmax 390 nm), the product of its hydrolysis is red (lmax 486 nm, 17,000 M-1). AmpC beta lactamase was provided by Shoichet Lab, UCSF.\nBuffer: 20 mM phosphate buffer, pH 7.0 Triton X-100: No Detergent screen: 0.0001%, Detergent screen: 0.01%. Reagents/Controls: Buffer in columns 3 and 4 as negative control (no enzyme). 5.3 nM AmpC in columns 1, 2, 5-48. Titration of UCSF compound 9 control (from 10 mM, then 1:2) pin-transferred to column 2. Column 1 is neutral (100% activity). Assay Steps: Six uL of reagents were dispensed to 1536-well Greiner black clear bottom plates. Compounds and controls (23 nL) were transferred via Kalypsys PinTool. The plates were incubated for 15 min at room temperature, and then 2 uL of 800 uM solution of nitrocefin was added to start the reaction. The plates were immediately transferred to and read every 20 seconds for 4 min on ViewLux (Perkin-Elmer) High-throughput CCD imager using 480 nm absorbance protocol. During dispense, reagent bottles were kept submerged into 4 deg C water bath. Keywords: NIH Roadmap, MLSCN, MLI, MLSMR, qHTS, NCGC, AmpC Beta-Lactamase, Aggregation"}
{"smiles": "C=CCN1CCN(C(=O)c2cc3c(s2)CCC(CC)C3)CC1", "note": "(stereo unspecified)", "activity change, negative = inhibition": "inactive: 111%"}
{"smiles": "CCOc1ccc(N2C(=O)NC(=O)/C(=C\\c3cc(OC)c(OC)cc3[N+](=O)[O-])C2=O)cc1", "activity change, negative = inhibition": "inactive: -29.3%"}
{"smiles": "CN(CC(=O)Nc1ccccc1Cl)C(=O)COC(=O)c1ccccc1[N+](=O)[O-]", "Potency": "inconclusive: 35.5 µM [inhibitor, single point]"}
{"smiles": "O=C(Nc1cc(S(=O)(=O)N2CCOCC2)ccc1O)c1ccc(NS(=O)(=O)c2ccc(Cl)s2)cc1", "Potency": "inconclusive: 10 µM [inhibitor, partial curve]"}
{"smiles": "O=C(CSc1ncccn1)NCc1ccccc1", "Potency": "inconclusive: 6.31 µM [inhibitor, single point]"}
{"smiles": "NS(=O)(=O)c1ccc(N2C(=O)C(=O)/C(=C(/O)c3ccccc3)C2c2ccc(Cl)cc2)cc1", "note": "(stereo unspecified)", "activity change, negative = inhibition": "inactive: -45.6%"}
{"smiles": "CC1CCCCN1C(=O)CSc1nnc2c(n1)[nH]c1ccc(F)cc12", "note": "(stereo unspecified)", "activity change, negative = inhibition": "inactive: -2.31%"}
{"smiles": "CCCCOc1ccc(C(=O)NCC(=O)NCCOc2ccccc2)cc1", "Potency": "active: 35.5 µM"}
{"smiles": "N=C1/C(=C/c2cccn2Cc2ccc(F)cc2)C(=O)N=C2SC=CN12", "Potency": "inconclusive: 12.6 µM [inhibitor, partial curve]"}
{"smiles": "Cc1cc(C)nc(NS(=O)(=O)c2ccc(NC(=O)C(C)C)cc2)n1", "activity change, negative = inhibition": "inactive: -14.6%"}
{"smiles": "O=C1NC(=O)N(Cc2ccco2)C(=O)/C1=C/c1cccn1CCOc1ccccc1Cl", "Potency": "active: 12.6 µM"}
{"smiles": "COc1ccc(/C=C/C(=O)Nc2cc(S(=O)(=O)N3CCCCC3)ccc2N2CCCCC2)cc1OC", "Potency": "inconclusive: 3.16 µM [inhibitor, single point]"}
{"smiles": "O=C(COC(=O)/C=C/c1ccccc1)Nc1cccnc1Cl", "Potency": "inconclusive: 35.5 µM [inhibitor, single point]"}
{"smiles": "CC(C)CNC(=O)COC(=O)CNC(=O)c1cc(Cl)cc([N+](=O)[O-])c1", "activity change, negative = inhibition": "inactive: -27.4%"}
{"smiles": "Cc1ccnc(NC(=O)CC(NC(=O)c2ccccc2Cl)c2ccccc2)c1", "note": "(stereo unspecified)", "Potency": "inconclusive: 39.8 µM [inhibitor, single point]"}
{"smiles": "O=C(NC1C2CC3CC(C2)CC1C3)C1CCCCC1", "note": "(stereo unspecified)", "activity change, negative = inhibition": "inactive: -8.65%"}
{"smiles": "CCCCN(C(=O)CCSc1ccc(F)cc1)c1c(N)n(Cc2ccccc2)c(=O)[nH]c1=O", "Potency": "inconclusive: 22.4 µM [inhibitor, single point]"}
{"smiles": "O=C(COC(=O)C12CC3CC(CC(C3)C1)C2)Nc1ccc2[nH]c(=O)[nH]c2c1", "Potency": "inconclusive: 25.1 µM [inhibitor, single point]"}
{"smiles": "O=C(c1cc(C(=O)NCc2ccccc2)c(=O)n(Cc2ccccc2)c1)c1cc(Cl)ccc1O", "Potency": "inconclusive: 35.5 µM [inhibitor, single point]"}
{"smiles": "CCOC(=O)c1c(C)n(-c2ccccc2)c2ccc(O)cc12", "activity change, negative = inhibition": "inactive: 49.8%"}
{"smiles": "COc1ccc(C2=C/C(=C\\c3ccc(OC(C)=O)cc3)C(=O)O2)cc1", "activity change, negative = inhibition": "inactive: -28.4%"}
{"smiles": "c1ccc(N2CCN(c3ccc4nncn4n3)CC2)nc1", "Potency": "inconclusive: 0.316 µM [inhibitor, full curve, poor fit]"}
{"smiles": "Cc1cc(C)c(C#N)c(N2CCCC2)n1", "Potency": "inconclusive: 6.31 µM [inhibitor, single point]"}
{"smiles": "O=C(CSc1ncnc2c1oc1ccccc12)Nc1nc2ccccc2s1", "Potency": "active: 0.794 µM"}
{"smiles": "CCNC(=O)COC(=O)CCC(=O)c1cccs1", "Potency": "inconclusive: 39.8 µM [inhibitor, single point]"}
{"smiles": "O=C1CC(Sc2nnnn2-c2ccccc2)C(=O)N1c1cccc(Cl)c1", "note": "(stereo unspecified)", "Potency": "inconclusive: 6.31 µM [inhibitor, single point]"}
{"smiles": "COc1ccc(-c2ccnc(-c3ccc(OCCCF)cc3)n2)cc1", "Potency": "inconclusive: 2.82 µM [inhibitor, partial curve, poor fit]"}
{"smiles": "COc1ccccc1/C=C/C(=O)/C=C/c1ccccc1O", "Potency": "inconclusive: 3.98 µM [inhibitor, partial curve]"}
{"smiles": "C/C(N)=C(/C#N)C(=O)CSc1nn(-c2ccc(Cl)cc2)c(=S)s1", "Potency": "inconclusive: 10 µM [inhibitor, partial curve]"}
{"smiles": "Cc1ccc(CN(C)C(=O)c2ccc(NS(=O)(=O)c3ccc4[nH]c(=O)[nH]c4c3)cc2)cc1", "Potency": "inconclusive: 22.4 µM [inhibitor, partial curve]"}
{"smiles": "CC1(OC(=O)CCc2ccccc2)C(=O)C=C2C=C(c3ccsc3)OC=C2C1=O", "note": "(stereo unspecified)", "Potency": "active: 28.2 µM"}
{"smiles": "COc1ccc(NC(=O)c2ccc(Cl)cc2)c[n+]1[O-]", "activity change, negative = inhibition": "inactive: -12.3%"}
{"smiles": "O=C(CCSc1ccccc1)Nc1nc2c(s1)COc1ccccc1-2", "Potency": "active: 3.16 µM"}
{"smiles": "Cc1ccc2nc(-c3ccsc3)c(NC3CCCC3)n2c1", "activity change, negative = inhibition": "inactive: -16.5%"}
{"smiles": "COc1ccc(C2C3C=CCC(c4cccc(-c5ccc(C)cc5)c4)C3C(=O)N2Cc2ccccc2)cc1Cl", "note": "(stereo unspecified)", "Potency": "inconclusive: 3.16 µM [inhibitor, full curve, poor fit]"}
{"smiles": "CCc1ccc(N2CC(C(=O)OCC(=O)NNC(=O)c3ccccc3)CC2=O)cc1", "note": "(stereo unspecified)", "Potency": "inconclusive: 31.6 µM [inhibitor, single point]"}
{"smiles": "CCOC(=O)c1sc(NC(=O)CSc2nnc(-c3ccco3)n2CC)c(C(=O)OCC)c1C", "Potency": "inconclusive: 6.31 µM [inhibitor, single point]"}
{"smiles": "N#Cc1nc(Nc2cccc(Cl)c2)c2ncn(C3CCCC3)c2n1", "activity change, negative = inhibition": "inactive: -13.6%"}
{"smiles": "O=C(Nc1cccc(-c2csc(Nc3ccc(Cl)cc3)n2)c1)c1cc([N+](=O)[O-])cc(C(F)(F)F)c1", "Potency": "inconclusive: 2.24 µM [inhibitor, partial curve]"}
{"smiles": "NC(=O)Nn1c(CCC(=O)O)ccc1-c1ccc(Br)cc1", "activity change, negative = inhibition": "inactive: -18.6%"}
{"smiles": "CN(CC(=O)Nc1ccc(F)cc1)C(=O)COc1ccccc1Cc1ccccc1", "Potency": "active: 35.5 µM"}
{"smiles": "CC(=O)c1ccc(-c2ccc(C(=O)N3CCC(C(N)=O)CC3)o2)cc1", "activity change, negative = inhibition": "inactive: -19.7%"}
{"smiles": "O=C(Nc1ccc(N2CCOCC2)nc1)c1ccc(Cl)cc1", "Potency": "inconclusive: 6.31 µM [inhibitor, single point]"}
{"smiles": "Cc1ccc(NC(=S)NCc2ccc3[nH]c4c(c3c2)CCCC4)cc1", "Potency": "inconclusive: 20 µM [inhibitor, single point]"}
{"smiles": "Cc1ccc(O)c(C(=O)c2cnc3c(c2)COc2ccc(C)cc2-3)c1", "activity change, negative = inhibition": "inactive: -12.3%"}
{"smiles": "COc1ccccc1-c1ccc(Nc2cccc(C(F)(F)F)c2)nn1", "activity change, negative = inhibition": "inactive: -13%"}
